# Results from PubChem BioAssay AID485344 (National Center for Advancing Translational Sciences (NCATS), 2010).
# About 6,900 (2%) of roughly 340,000 compounds were called active. Cut-off read from the data, not from the text of the source: active = inhibition above about 30%; inactive = below that, where a call was filed. The list shows a part of the results, in another mix than the full data. Entries without a call were filed so in the source.
# Target: D(2) dopamine receptor (Homo sapiens) (UniProt P14416)
# Chain of UniProt P14416 (P14416 whole entry, looked up): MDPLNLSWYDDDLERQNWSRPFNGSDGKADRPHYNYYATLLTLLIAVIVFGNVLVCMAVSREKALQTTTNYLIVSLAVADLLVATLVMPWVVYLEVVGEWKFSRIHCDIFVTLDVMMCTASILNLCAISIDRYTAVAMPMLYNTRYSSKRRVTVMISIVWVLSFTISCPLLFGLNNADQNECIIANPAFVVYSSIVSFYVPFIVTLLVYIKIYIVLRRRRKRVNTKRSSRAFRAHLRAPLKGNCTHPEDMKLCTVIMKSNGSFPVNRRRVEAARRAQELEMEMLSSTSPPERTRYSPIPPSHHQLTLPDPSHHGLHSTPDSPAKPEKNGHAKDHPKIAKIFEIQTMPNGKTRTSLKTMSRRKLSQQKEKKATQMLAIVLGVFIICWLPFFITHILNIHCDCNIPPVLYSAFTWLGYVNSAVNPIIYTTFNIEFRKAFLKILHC
# Assay: HTS Assay for Allosteric Antagonists of the Human D2 Dopamine Receptor: Primary Screen for Antagonists; note: 0% is about no effect
# Conditions: HEK293 TREx D2 cells, calcium flux, dopamine EC80; at 10 µM; stronger effect = higher value
# In short: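 Calcium flux kinetic readout in an inducible HEK293 TREx D2 line plated overnight at 30 C. After 180 s compound exposure, an EC80 dopamine challenge follows with another 180 s kinetic read to detect antagonism.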
row,Compound,inhibition
1,CCOc1ccc(NC(=O)CC2C(=O)N(c3cccc(C)c3)C(=O)N2Cc2cccnc2)cc1 (configuration not stated),10.7%
2,CCCn1cc(S(=O)(=O)c2ccc(CC)cc2)c(=O)c2ccccc21,-11.2%
3,Cc1ccc(N(C)C(=O)C2CCCN(c3ncnc4c3nc3n4CCCCC3)C2)cc1C (configuration not stated),25.4%
4,Cc1ccc2occ(-c3cc(-c4ccc(Cl)cc4)nc4c3COc3ccccc3-4)c(=O)c2c1,10.4%
5,CCCCc1nn2c(=O)cc(COC(=O)c3ccc(NC(=O)C4CCCCC4)cc3)nc2s1,-3.04%
6,Cc1ccc(Cn2c(=O)n(Cc3ccccc3Cl)c(=O)c3ccccc32)cc1,-3.65%
7,CCOCCc1nn2c(=O)cc(COC(=O)C(CC)c3ccccc3)nc2s1 (configuration not stated),2%
8,Cc1ccc([N+](=O)[O-])c(OCCN2CCc3ccccc3C2)c1,active: 88%
9,Cc1nnc(N2CCN(c3ccccc3F)CC2)c2c1nnn2Cc1ccccc1,-0.127%
10,COc1ccc(NC(=O)CCn2cccn2)cc1OC,8.71%
11,CCOC(=O)Cn1c(=O)n(-c2ccccc2OC)c2nc(-c3ccccc3C)nc(C(N)=O)c21,8.83%
12,O=C(COc1ccccc1)Nc1ccccc1C(=O)OCc1cc(=O)n2nc(C3CC3)sc2n1,3.36%
13,COC(=O)CC1Oc2ccccc2-n2cc(-c3ccc(Cl)cc3)nc21 (configuration not stated),1.66%
14,Cc1ccccc1C(=O)Nc1nnc(S(=O)(=O)N2CCCCCC2)s1,0.598%
15,Cc1ccc(Cl)cc1N1CCN(C(=O)C2CCN(Cc3nc(-c4cccc(Cl)c4)oc3C)CC2)CC1,-10.2%
16,CCc1nn2c(=O)cc(COC(=O)C(c3ccccc3)c3ccccc3)nc2s1,-16.2%
17,Cc1cccc(-c2nc(SCC(=O)Nc3ccc4c(c3)OCCO4)c(-c3ccccc3)[nH]2)c1,22.1%
18,COc1ccc(-n2nc(C(=O)NCCc3cccc(C)c3)c3c4ccccc4n(C)c3c2=O)cc1Cl,-20%
19,CCOC(=O)c1ccc(Nc2cc(-c3ccccc3)nc(C)n2)cc1,-4.38%
20,Cc1cc(C)cc(N(CC(=O)NCc2ccccc2Cl)S(=O)(=O)c2c(C)noc2C)c1,10.3%
21,Cn1c(CCNC(=O)c2ccco2)nc2cc(NC(=O)COc3ccc(Cl)cc3)ccc21,6.91%
22,O=C(CSc1nc(=O)[nH]c2c1CCC2)NCc1ccccc1,8.33%
23,O=C(NCc1ccccc1CN1CCCC1)c1cc2cc(Cl)ccc2o1,active: 39.9%
24,CCOC(=O)N1CCC(NC(=O)C2CCN(S(=O)(=O)c3cccc4cccnc34)CC2)CC1,active: 51.2%
25,Cc1ccc(C(=O)COC(=O)CCC(=O)Nc2ccc(Oc3ccccc3)cc2)cc1C,-6.65%

row,Compound,inhibition
1,Oc1c(C(c2ccccc2)N2CCN(c3ccccc3)CC2)sc2nc(-c3ccco3)nn12 (configuration not stated),-24.4%
2,O=C(NCCc1ccccc1)C(=O)Nc1cccc(Br)c1,0.585%
3,Cc1cccc(NC(=O)CSc2cc(C)c3ccccc3n2)c1,21.8%
4,COc1ccc(N2CCN(C(=O)Nc3cccc(C(F)(F)F)c3)CC2)cc1,-0.0737%
5,CCc1ccccc1NC(=O)Cc1c(C(=O)O)[nH]c2ccc(Cl)cc12,8.12%
6,Cc1ccc(Cn2c(CNC(=O)c3ccccc3Br)nc3cccnc32)cc1,17.3%
7,CC(C)CNC(=O)C1=CC(c2ccc3c(c2)OCO3)=NS(=O)(=O)N1C,-10.3%
8,Cc1ccc(-n2c(=O)c3oc4ccccc4c3n(CC(=O)Nc3ccccc3)c2=O)cc1C,3.49%
9,CCc1ccc(C2c3c(oc4ccc(C)cc4c3=O)C(=O)N2c2nc(C)c(C)s2)cc1 (configuration not stated),4.48%
10,COc1ccc(-c2cc(C(F)(F)F)nc(SCCC(=O)Nc3c(C)cccc3C)n2)cc1,-0.564%
11,COc1cccc(-c2ccc3c(N)c(C(=O)Nc4ccc(C)c(F)c4)sc3n2)c1,-3.14%
12,COc1cc(NC(=O)Cn2cc(S(=O)(=O)c3ccccc3)c(=O)c3ccccc32)cc(OC)c1,-1.22%
13,CNC(=O)COc1ccc(Nc2nnc(-c3ccc(C)c(S(=O)(=O)NC(C)(C)C)c3)c3ccccc23)cc1,9.76%
14,COc1ccc(-c2onc(C)c2C)cc1S(=O)(=O)NC1CCC(C)CC1 (configuration not stated),-3.82%
15,Cc1ccc(OCC(=O)Nc2ccc(C(=O)OCc3cc(=O)n4c(C)csc4n3)cc2)cc1,10.1%
16,O=C(Nc1ccc(F)cc1F)c1ccc(-n2cnnc2)cc1,24.9%
17,O=C(NCC12CC3CC(CC(C3)C1)C2)c1cc2nc(-c3ccc(F)cc3)cc(C(F)(F)F)n2n1,-4.58%
18,COc1ccccc1N1CCN(C(CNC(=O)C(=O)NCCc2ccccc2)c2cccnc2)CC1 (configuration not stated),10.2%
19,O=C(NCCc1ccccc1)c1cc(Sc2ccc(F)cc2F)nc2ccccc12,3.88%
20,COc1cccc(OCc2nc3ccccc3n2CCOc2cccc(C)c2)c1,-2.07%
21,CCC(C(=O)Nc1ccc(C(C)=O)cc1)n1c(C)c2cnn(-c3ccccc3)c(=O)c2c1C (configuration not stated),9.1%
22,Cn1c(=O)c2c(nc(SCC(=O)Nc3ccc(F)cc3)n2Cc2ccccc2)n(C)c1=O,-1.66%
23,COc1ccc(NS(=O)(=O)c2ccc3[nH]c4c(c3c2)CCCCCC4)cc1,-8.72%
24,Fc1ccc(CNc2nc(-c3ccccc3)cc(C(F)(F)F)n2)cc1,-1.39%
25,Cn1ccnc1SCC(=O)Nc1cc(Cl)ccc1Cl,-16.7%

row,Compound,inhibition
1,CCN(CC)c1ccc(C2C(C(N)=O)=C(C)Nc3ncnn32)cc1 (configuration not stated),-12.8%
2,CCCCNC(=O)CCc1c(C)nc2c(c(C)nn2-c2ccccc2)c1C,5.56%
3,Cc1ccc(NC(=O)C2CCCN2S(=O)(=O)c2cccc3cccnc23)cc1C (configuration not stated),-4.69%
4,CC(C)C(=O)OCc1cc(=O)n2nc(C3CCCCC3)sc2n1,2.49%
5,COCCNc1ncnc2c1c(-c1ccccc1)cn2-c1cccc(Cl)c1,-4.05%
6,CCc1ccc(NCc2cc3cc4c(cc3n(CC(=O)Nc3ccc(F)cc3)c2=O)OCCO4)cc1,-26.5%
7,COc1ccc(CNC(=O)C2CCN(S(=O)(=O)c3cccc4nonc34)CC2)cc1OC,3.59%
8,O=C1CC(c2ccc(Cl)cc2)N=C(NC(=O)c2ccccc2)N1 (configuration not stated),-3.4%
9,Cc1ccc(NC(=O)Cn2c(=O)ccc3cc(S(=O)(=O)N4CCC(C)CC4)ccc32)cc1Cl,-9.3%
10,Cc1ccc(C)c(NC(=O)c2cc(=O)c3cc(C)cc(C)c3o2)c1,-9.05%
11,COc1cccc(NC(=O)CCNC(=O)Cn2ccc3ccccc3c2=O)c1,2.41%
12,O=C(CSc1ccccc1)Nc1cc(Cl)ccc1Oc1ccccc1,active: 41.8%
13,O=C(c1ccc2c(=O)n(CCc3ccccc3)c(=O)[nH]c2c1)N1CCN(c2ccc(Cl)cc2)CC1,-4.5%
14,CCn1c(C)c(C)c2cc(C(=O)NCCc3ccc(C)cc3)ccc21,26.4%
15,O=C(Nc1ccc2nn(-c3ccccc3)nc2c1)c1ccc(-c2cccc(Cl)c2)o1,-2.95%
16,CCOc1ccc(C(=O)N2CCN(Cc3cc(=O)n4nc(-c5ccccc5Cl)sc4n3)CC2)cc1,-0.837%
17,O=C(CSc1nnc(CNC(=O)c2c(F)cccc2Cl)o1)Nc1cccc(F)c1,7.78%
18,CCOc1ccc(NS(=O)(=O)c2ccc(NC(=O)N3CCCC3)cc2)cc1,-3.28%
19,CC(C)=CCN1CCN(CCC2=C(C)CCCC2(C)C)CC1CCO (configuration not stated),active: 60.9%
20,COCCCNC(=O)CCc1c(C)nc2cc(-c3ccc(Cl)cc3)nn2c1C,21.4%
21,CC(C)Cn1c(/C=C/c2ccc(F)cc2)nc2ccccc21,9%
22,O=C(c1cccs1)N1CCCc2cc(NS(=O)(=O)c3ccc(F)cc3)ccc21,11%
23,COc1ccccc1NC(=O)C1=C(C)Nc2nc(SCc3cc(C)ccc3C)nn2C1c1ccccc1 (configuration not stated),17.1%
24,CCOC(=O)c1c(C)[nH]c(CCC(=O)Nc2ccccc2C(=O)OC)c1C,-5.09%
25,CC(C)C(=O)Nc1ccc2nc(SCCOc3ccccc3)sc2c1,1.03%

row,Compound,inhibition
1,CCOc1ccc(CN2CCCC(CO)(Cc3ccccc3F)C2)cc1 (configuration not stated),active: 66.8%
2,CCn1c(=O)n(CC)c2cc(N3CCCCC3)c(NC(=O)Nc3cc(Cl)ccc3OC)cc21,9.14%
3,Cc1ccccc1-c1cc(C(=O)N/N=C/c2cccnc2)c2ccccc2n1,active: 32.5%
4,COc1ccc(-n2c(-c3ccco3)nc3c(cnn3-c3ccc(C)cc3)c2=O)cc1,-8.38%
5,CCCCOCc1cc(CN2CCN(c3cccc(Cl)c3)CC2)c(O)c2ncccc12,0.485%
6,COc1ccc(CCNC(=O)CCS(=O)(=O)c2ccc3c(c2)oc(=O)n3C)cc1OC,-1.35%
7,Cc1ccc(N2CCN(C(=O)c3cn(C)c4ccc(S(=O)(=O)N(C)C5CCCCC5)cc4c3=O)CC2C)cc1 (configuration not stated),-6.77%
8,Cc1nn2c(-c3cccc(NC(=O)c4ccc(Cl)cc4)c3)nnc2c2ccccc12,10.1%
9,CCN1CCC(N(Cc2ccc3c(c2)OCO3)C(=O)Nc2ccc(Br)c(C)c2)CC1,7.76%
10,CCS(=O)(=O)N1CCc2cc(C(=O)Nc3cc(Cl)ccc3C)ccc21,26.2%
11,COc1cc(C2CC(=O)Nc3c2c(=O)nc2c(C)cccn32)cc(OC)c1OC (configuration not stated),-1.78%
12,Cc1ccc(NC(=O)CSc2nncs2)cc1Cl,active: 47.8%
13,CCN(CCCNC(=O)c1cc2cc3ccc(OC)cc3nc2s1)c1ccccc1,11.2%
14,Cc1ccc(NC(=O)C(Cc2ccccc2)NS(=O)(=O)c2cccc3nsnc23)c(C)c1 (configuration not stated),-1.22%
15,Cc1cccc(CNC(=O)c2ccc(Cn3c(=O)c4cccn4c4cccnc43)cc2)c1,10.4%
16,COc1cccc(Nc2nc(-c3ccccc3)c3cc(C)ccc3n2)c1,3.35%
17,COc1ccc(-c2cc3ccccc3n2CC(O)CN2CCC(C)CC2)cc1 (configuration not stated),active: 81.3%
18,O=C1c2oc3ccccc3c(=O)c2C(c2cccc(O)c2)N1c1ccccn1 (configuration not stated),active: 30.8%
19,O=C(CC1N=C2c3ccccc3N=C(SCc3ccccc3F)N2C1=O)NCc1cccs1 (configuration not stated),-16.3%
20,CCCNS(=O)(=O)c1ccc(OCC(=O)NCCCOC)cc1,active: 30.2%
21,CCCOc1ccc(C(=O)Nc2c(C(=O)c3ccc(C)cc3)oc3ccccc23)cc1,-5.98%
22,COc1ccc(CNC(=O)Cn2c(=O)oc3cc(S(=O)(=O)N4CCCC4)ccc32)cc1,-2.25%
